# Results reported in PubChem BioAssay AID588342 (National Center for Advancing Translational Sciences (NCATS), 2011).
# Out of some 360,000 compounds screened, about 25,000 (6.9%) were called active. The shares of active, inactive and inconclusive entries below differ from those in the screen. The call rests on the fitted dose curve; in most records, active means well fitted inhibition curve with a large enough effect; inconclusive means small, poorly fitted or top-dose-only effect; inactive means flat fitted curve, though single readings scatter. Potencies of inconclusive entries are doubtful fits and often do not repeat.
# Biological target: Luciferin 4-monooxygenase (Photinus pyralis) (UniProt P08659)
# Assay: qHTS profiling assay for firefly luciferase inhibitor/activator using purifed enzyme and Km concentrations of substrates (counterscreen for miR-21 project); further: nearly all actives have a fitted effect of over 55% in size
# Conditions: purified FLuc, luminescence inhibition; series mostly up to 57.5 µM
# Method in brief: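 Purified P. pyralis luciferase (10nM final) with 10uM D-luciferin and 10uM ATP (Km levels) in 50mM Tris acetate pH 7.5, 10mM Mg acetate, 0.01% Tween-20, 0.05% BSA; qHTS 6-point titration, ~60 µM downward; luminescence read.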
# Potency means the concentration at half of the fitted maximal effect; tags describe the fitted curve by direction and shape.
# Sequence of UniProt P08659 (P08659 whole entry, looked up): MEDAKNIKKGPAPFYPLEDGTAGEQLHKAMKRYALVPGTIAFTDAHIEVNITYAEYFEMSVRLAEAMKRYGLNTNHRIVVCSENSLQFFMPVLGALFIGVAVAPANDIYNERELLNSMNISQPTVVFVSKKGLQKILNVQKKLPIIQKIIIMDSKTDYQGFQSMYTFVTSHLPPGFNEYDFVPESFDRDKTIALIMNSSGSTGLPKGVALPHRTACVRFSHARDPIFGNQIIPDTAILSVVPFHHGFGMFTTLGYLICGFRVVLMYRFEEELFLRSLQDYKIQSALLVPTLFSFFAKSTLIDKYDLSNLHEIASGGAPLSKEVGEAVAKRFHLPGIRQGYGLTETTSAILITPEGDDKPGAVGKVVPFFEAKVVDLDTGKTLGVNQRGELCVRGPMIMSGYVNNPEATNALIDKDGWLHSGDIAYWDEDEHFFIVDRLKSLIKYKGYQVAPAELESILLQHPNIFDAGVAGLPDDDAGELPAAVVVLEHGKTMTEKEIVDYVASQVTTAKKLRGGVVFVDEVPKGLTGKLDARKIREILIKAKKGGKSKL
row,SMILES,Potency
1,Nc1ncnc2c1cnn2-c1ccccc1,"inconclusive: 16.9 µM [inhibitor, partial curve]"
2,CCOC(=O)c1nc2sc3c(c2c(=O)[nH]1)CCCC3,active: 19 µM
3,C[C@@H](CO)NC(=O)c1ccc2c3n(nc2c1)-c1ccc(Cl)cc1CO3,active: 3.01 µM
4,O=C(NCc1csc(-c2cccs2)n1)C1CC1,"inconclusive: 26.9 µM [inhibitor, partial curve, poor fit]"
5,O=C(Nc1ccc(Cl)cc1Cl)C1=Cc2ccccc2OC1,active: 1.9 µM
6,O=C(c1ccc2c(c1)OCO2)N1CCCc2ccccc21,"inconclusive: 19 µM [inhibitor, partial curve, poor fit]"
7,COc1ccc(CNC(=O)c2cc(-c3ccc(OC)c(OC)c3)nc3n[nH]c(-c4ccc(C)cc4)c23)cc1,inactive
8,O=C(CSc1ccc2nc(-c3ccccc3)cn2n1)Nc1ccccc1,"inconclusive: 2.69 µM [inhibitor, full curve]"
9,COC(=O)c1ccc(NC(=O)c2cccnc2)cc1,inactive
10,O=C(Nc1ccccc1-c1ccccc1)c1ccc(=O)[nH]n1,"inconclusive: 19 µM [inhibitor, partial curve, poor fit]"
11,O=C(Nc1ccc(F)cc1F)c1ccc(-n2cnc3cccnc32)cc1,inactive
12,O=C(O)c1ccc2c(c1Sc1ccccc1)C(=O)c1ccccc1C2=O,"inconclusive: 37.9 µM [inhibitor, partial curve, poor fit]"
13,Cc1ccc(CSc2nccc(-c3c(C)nc4ccccn34)n2)cc1,inactive
14,COC(=O)c1cc(-c2ccc(NC(C)=O)cc2)nc2ccccc12,active: 12 µM
15,Cc1ccccc1OCCC(=O)Nc1cc(S(=O)(=O)N2CCOCC2)ccc1OC(C)C,inactive
16,CCCC(=O)Nc1cccc(NC(=O)c2ccc(C)c([N+](=O)[O-])c2)c1,"inconclusive: 26.9 µM [inhibitor, single point]"
17,CCCCCCC(=O)N(O)C1CC(=O)N(c2ccccc2)C1=O (stereo unspecified),"inconclusive: 19 µM [inhibitor, partial curve, poor fit]"
18,COc1ccc(-c2cc(C(F)(F)F)nc(SCCC(=O)Nc3ccc(F)cc3F)n2)cc1,inactive
19,Cc1ccc(C)c(C(=O)COC(=O)Cn2[nH]c(=O)c3ccccc3c2=O)c1,inactive
20,CCN(CC)c1ccc2cc(C(N)=O)c(=O)oc2c1,"inconclusive: 21.3 µM [inhibitor, partial curve]"
21,CN(c1ccccc1)c1ccc(/C=C(\C#N)c2nnc3n2CCCCC3)cc1[N+](=O)[O-],"inconclusive: 26.9 µM [inhibitor, single point]"
